# From paper PMC10726135
# The list shows a part of the results. At the low end of the ranking the order means little. Measured with an extract: partners may take part in the binding.
# Target: T1, HNF4alpha8 (COS-7 nuclear extract) (UniProt P41235-5)
# T1 sequence: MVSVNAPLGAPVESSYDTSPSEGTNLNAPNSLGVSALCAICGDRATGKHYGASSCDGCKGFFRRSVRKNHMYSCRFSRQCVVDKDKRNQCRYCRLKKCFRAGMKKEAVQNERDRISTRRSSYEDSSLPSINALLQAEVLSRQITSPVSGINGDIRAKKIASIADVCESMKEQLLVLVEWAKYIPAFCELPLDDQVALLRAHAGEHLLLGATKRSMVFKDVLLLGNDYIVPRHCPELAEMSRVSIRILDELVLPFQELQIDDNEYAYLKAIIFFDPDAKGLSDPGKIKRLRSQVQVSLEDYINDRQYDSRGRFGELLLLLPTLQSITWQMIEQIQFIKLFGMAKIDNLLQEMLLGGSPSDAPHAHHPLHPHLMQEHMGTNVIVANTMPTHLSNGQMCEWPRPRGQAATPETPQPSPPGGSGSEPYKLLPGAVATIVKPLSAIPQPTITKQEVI
# Test: protein-binding microarray
# Settings: COS-7 nuclear extract on double-stranded Agilent 4x180k PBM; binding buffer, salt, pH and temperature not given; high values mean tight binding; double strand, one strand shown; sequences stand for … in …GCCTAGGGAGATTAGAGTATCGGTCGA
row,Sequence,binding signal (log2 normalized intensity)
1,AGCTGAAGTTTGCAAACAGTAAAGAACAAA,-0.964
2,TCCCACTTCAGCCTCCCGAGTAGTTGGGTC,1.21
3,TGGTTAGTTCCAAAGGACAAATCTCACTGA,1.09
4,ACAGCCTTGTTTACAACGCTGTTGTCTGTG,0.502
5,ATTCAACTTTGACTTCCATTGTGTTGCAGA,1.02
6,TAGGGGCCGCATTGATGTTAGAATACAAGT,0.508
7,CAGAGCTAATGTTCAAATCCAGACACTTTG,-0.461
8,TTCTTCCAGTTGTGTGCACAAGAGGGTGGG,-0.441
9,GTCAAAAGGTGTATGTGGACTTTCAACTGC,6.13
10,TTGTACACATTCCTTTGGATCATGTGTCTG,1.95
11,CGTAATACAAAGGCAGCCATTGACGGTATG,-0.923
12,TGGGTTGAGGCTAAGAGGTGAACACATTCC,-0.969
13,CTTTTTGGCCTTTGGCTGTTCGATGTATAC,2.53
14,CCCCACATTCCAACACAGGGTCAATGTCCC,3.76
15,TTTTTTGCTTAGATGGTTTAAAGAATTCTG,0.568
16,TTTACTTATCATAAGTCAGCCTGGCTGAAG,1.53
17,TTGATGTGAGGGTAGGAGCCTAGCTTCCTT,-0.444
18,TTCCTCAACTCTAGGAGCATGTCAAAAGCT,-1.27
19,AGGGCAGCATAATCACATACAGGCCAGCTG,-1.54
20,TGTTCGCAGACCTGCCAAAGTGTACCCTGT,3.49
21,GGTCCTGCCATTAAACACCTTATTTGGTCA,1.34
22,TAATCATATCTGCCTCAGTAGTAGTGAAAA,1.63
23,AGAATGAGCCTCTTCTTTAATAAGAAAAGG,-1.33
24,CCAAAAAGCATAACTGTATAACCTGGAACT,-0.938
25,ACCTACACCTATGTGGTCAAAACTTTGTTT,1.36

row,Sequence,binding signal (log2 normalized intensity)
1,TTTATCAGTGATTTCTCTTCCATCTCAGCT,-1.37
2,CAAAGGTCAGATGACAGAATTGGTCCTGGA,2.85
3,AAAGCTCACAGATGTGGAATGAAACCAGTT,0.297
4,CGGAGCGCCGAGCAGGCACCCCGGGAGCGC,-1.38
5,TTTTCATCTGATCAGTGCCCATCTGGTGGT,1.18
6,AGAAAGAAAAAGTACACACCTGCAACCTAT,-1.17
7,CTCCAACTGCTCCTCTTCAACTGATTCTTG,-0.845
8,CCGGGGAGATACTGTAAACCAGCAGTATCT,-1.23
9,AACTGGACTAGACAGGCTTGTCGAGGACAG,-1.36
10,AGCTTCTCTTTCTAGGTCACCACCTTTTTT,1.54
11,GGAGCAGCATGGCCCTTTGCAGCCCGAGCT,-1.22
12,GTTAAGTGAGTGGACTTTGGTCCTGGTCAG,7.53
13,AAAAAACCTGTTCAGCCAGATTCTCTCACT,-1.33
14,TCCACAGATAAGGAGGAGACAGACTTATCG,-1.32
15,CTTTGCCCGGATTCCAGCAACTTCCTCTTG,-1.38
16,GCCATGGACTGCTGACCTTTGAACCCTGAG,10.3
17,CACCACTAGGAAACTGACCTTTGCTCATGA,7.58
18,GCAAGACTGCATTCCCTAGATGTCGCAGTA,-1.3
19,GGTCAGAGTAAAGCTCCAGTCTCCTCCCTG,-1.18
20,AGGAAATCAAAAACCATTTGACAATTTACA,-1.22
21,GAGACATGTGGCCTTTGGTACAGGGCCCAG,2.06
22,CACCAGATAGCAAGGAGACATCGCTCCTCC,-1.32
23,AATCATGGGCCCACAGATGATCAAAGGTCA,7.91
24,CTCCAGGGAGAAACCTGCCAGGTGGACCAA,1.8
25,AAGATATTATCTCTGTCTGTCAAGGCTTTT,0.523

row,Sequence,binding signal (log2 normalized intensity)
1,GAAGATTTGCGGCCATCTAGCTACAGGAGA,-1.27
2,AGGTCGGTGGTATGTGTGTGCTTTAACAAG,2.04
3,GGCGGGGTTTTCGGTTTTCAAATGAACCCG,3.66
4,TTCTTGCTCTTTACCCCTGCAAGGATTGAT,2.1
5,AGTAAATCTCACATTCGTTAACATCAGCTG,-1.1
6,AGAAATCCACACAGCACTGACCTTTGAGAG,5.79
7,ATATTGACTGCCCCAACGCCTCCTTTCATC,2.71
8,AGTAAAGGTCGTTCTATCGGAGAACGTTCC,0.621
9,TCATCAGTGCCATTCATTAGTCCTGGTTTT,0.795
10,GGAAAGGGAACTCCCTGACCCCTAGCACTT,4.05
11,TTAGAAGGCTCCCTGCTGCGGAGAGTTCCC,-1.26
12,AGAATTTAAACCAAACAGAACAAAGTCCAG,4.03
13,CAGAGTAACCATGGGGGCTCAGGGCCTCTC,-1.28
14,ATTTCTGTGGACTGCTCCAGTGGACATTGG,3.51
15,TGATAAGCAAGATGACTTTGGTCTAGACAC,1.28
16,ACTGTCCCAGCTGAGATTCAGAATAGTTAA,-1.5
17,TTCAAAGGAGTGTCTTTCTCCTTGAACACA,1.22
18,AATGCAGCAGCATTGGACCCTCCCAGCCAA,4.33
19,GAAAAAGCTGACGCCCCACCCCCTCCACCC,6.5
20,TGAAATCTACAGGACAGCCAGGCAGTCGGG,-1.27
21,GCCTGCGGGGTCAGGCCGTGGTGTATGATG,1.86
22,CTGCCTTGGAGGCACTCCCAGGATAATGGA,-1.41
23,TTTGTTTTTACAGACAGGCATGACAGAGTG,1.13
24,GCTGGACTTTCATCTGAGTCTCAGCAATTA,1.15
25,TGAGCTGTGGTTAAGACTCAAAGTTCAGTC,3.85

row,Sequence,binding signal (log2 normalized intensity)
1,GGAGCTGAAACTATAAACTTGGTTACAGGA,-1.37
2,CTAATGGTACCATCTGCCACTCATAGAACT,-1.3
3,GTCTGCACTCCAGGAAAGACGAGTGCGCTT,-1.3
4,AAATTCCTAGCCCTCTTTCAAAGACAAATA,-0.964
5,CATTGCCCCCTATGTAAAGGCCTTTGAAGC,3.55
6,AGTAATCAATGGTTGCACTCTGGTGCCCTC,2.89
7,GCGTGGCCCAGCATGCCCCGCGCCGCGTCC,0.93
8,AGAGAGTTCTATGGGATGACCTTTGAGCAA,7.89
9,GGCAGATATGAAAGAGCCATGGACTGCTGA,-0.289
10,TGAGAAGGGCTAATATTTGCAAATGACTTT,0.24
11,CCCACTAGGCCAGCCCGAGCGCGTCTGCCA,-1.37
12,TTTAATGTATAAACCCTGAGGGTCAACACA,2.27
13,GGATGCCAAATTCCTCCCACTCTGACATCC,-0.765
14,GCCCTCCTAGCAAACAATGAGGACGTGTGT,0.528
15,AGTGCTGTTTGCAAGGATTAAGTGAGATCA,1.27
16,AAGAGCAAACAATCAGTGAAATGCCAGTGG,-1.29
17,AGAGTAGCTCCAAAAGGTGGACAAGACTGG,-1.4
18,CCCCATGATGATAGCAAACACGATTGGATG,0.195
19,GGCAGGACAGCAGGAGTGGGAGAAAGCTTT,-1.37
20,AACAAACGACGCTCCTATCATCCCTATCAC,-1.29
21,TTCCAGAAATCTGACCTCTGCCTCGGCCAC,3.19
22,TCTTAGGACCACATGAGTAAACAAGCTCTT,-1.3
23,CAGCAACACTCTACTACTTGACCTTTGAAA,6.62
24,GCTTTTCCATTGACAGTCCAAGGACTCAAT,-0.931
25,AAGAGATAGCGAGAAGGCAGGTAGAAGAAG,-1.27

row,Sequence,binding signal (log2 normalized intensity)
1,GCTAAGATTGGACTCTGCACTCCAGCCTGG,5.62
2,TCAGACCACCAGCTGCTTCGGCCAGCACAG,-1.38
3,AGAGATCAAAGGTGAGTGGGGAAAGAGCCC,2.45
4,CAGGGGTAAGTTTCTAACTACCATGAATTC,0.259
5,ATCTTTCTGTCTCATTCCCTGACAGACCCC,3.87
6,ACTGCGGACATAGCTTGCCACAGCATGTTA,-1.35
7,GATTTACATTGAGTTAACTATTGAGACTTT,2.42
8,ATCAACTTTCAGAAGGGGACAAGCACATTA,-1.28
9,TACAAGGTCCATAAAACCAGTCAGGCAAAC,-1.21
10,AAGGGAGAAAGACATGTTTCTAACTGCCCG,0.0984
11,TCTGGGGTCCTCTGCTGCCCTCTAGGGTTG,1.99
12,GCAGAAATCAACTGCCCTCTGCCTTTCAGG,0.0509
13,CTCTCTGAAATGAAGGTCAGCAAATTTGTT,1.42
14,CTTCGTCCTGAGCAGTCCCTTCCCCCCTCC,5.7
15,GCAGAAACCATCTGGCTTGGCCCCCGGACC,3.7
16,CTGCTCAAAGGGGAAAGAGGGGGAAGAGAT,-1.34
17,CAGAGCCTGCCCCCGGGGCCGCCTTGGAAA,1.04
18,GATGTGGAATGAAACCAGTTTCAAAACCTG,-1.45
19,GGCAGTCGGGAAATTCCAGCAGGAATTGAT,-1.3
20,CTCCCTTTTCAACAATGTTATCTTTTCAAG,1.33
21,GTCATAGCTTTATCTCTCCCCCACCACTGC,4.61
22,AAACCTTCCAAAGTTCAACCTCATTATCTT,2.7
23,TTCCATACCAAAGACTGAGCAGCTGGAGGG,-1.38
24,ATTAAGAGGCTACAACCAGACTTGGAGAGA,-1.37
25,CTAACCATAGGAGGCTGGTCTAAGTCCACA,2.76

row,Sequence,binding signal (log2 normalized intensity)
1,ACTTTGGAATGGCAGTGCTTGTCCAAGATG,0.498
2,GGGTTAGGGTTAGGGTTACGGTTAGGGTTA,1.59
3,CTGCAGAGGCTGGTTCACACCCCACGTACA,1.76
4,GAGGAAAACTGGGCAAAGGTCAGGATCTCA,5.3
5,CAAAGTCCACCTCAACCTCCCCCTGGGGAC,3.8
6,GATTCCAGCTCTCGGATCCTCTGGGCTGGC,-1.25
7,ACCCCTAATGAATGGCAAATTAAACAGCAT,-1.32
8,AGGAGCGAGTCAAGGGTCAATCCTCTCTTT,3.09
9,CCATTGTAGATTCAATAATACAAGAGGCTT,-1.45
10,AGGCTAGAATGGAAACCAATAACTGCTTCT,-1.53
11,GAGAGTACACAGAAGTTAATTTCAAAACAA,-1.38
12,TGTGTGCCTGAGAATGAGGGGCAGGCTTAG,-1.37
13,GTTTTCTGTCTTCATCCTGAGAGGGCTCAA,-0.86
14,AGAAAAATATGTGGACTTCAAAGGTACTTA,0.953
15,ACAGACATAAACACAGACACACATGAGCTA,-1.33
16,ATTGACCACCTCCTCTGAAGCTAGGACAAG,0.0374
17,GCCCAAAGGTCAGTCTGCAGCTAATAAACT,2.64
18,ATAAGATGTGTAAAACACAAATCTCCACAA,-1.41
19,AAGAGGCTCTTCAATGCATTCCTGAAGCCT,-1.31
20,CCCTTTGGTCTGGAACACAGAGGGAAATGC,-0.923
